Out of some 220,000 compounds screened, about 5,700 (2.6%) were called active. Inconclusive results, whose numbers are uncertain, are shown with a selection of clear calls. Calls follow the shape of the dose curve; as a rule, active = well fitted inhibition curve with a large enough effect; inconclusive = small, poorly fitted or top-dose-only effect; inactive = no such curve, though single readings can be large or run the other way. Potencies beside an inconclusive call are fits to weak or partial responses and may not hold up.
molecular target: Lysine-specific demethylase 5B (Homo sapiens) (UniProt Q9UGL1); assay: Primary screen for KDM5B Histone Demethylases FDH-coupled qHTS; conditions: FDH-coupled NADH fluorescence (FDH is formaldehyde dehydrogenase); activity change, negative = inhibition: at 57.7 µM (top of the series) unless noted; also: nearly all actives have a fitted effect of over 70% in size; as to activity change, negative = inhibition: 0% is about no effect
Method in brief: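 Compound dilutions met 200 nM (final) KDM5BΔAP for 10 min at room temperature before substrate addition. The substrate mix held 12.5 µM H3K4me3 with cofactors 25 µM α-ketoglutarate and 50 µM Fe²⁺. NADH signal gain over 30 min defined activity.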
Potency is read from the fitted curve at half-maximal effect; tags tell the direction and shape of the fitted curve.

Sequence of UniProt Q9UGL1 (Q9UGL1 whole entry, looked up): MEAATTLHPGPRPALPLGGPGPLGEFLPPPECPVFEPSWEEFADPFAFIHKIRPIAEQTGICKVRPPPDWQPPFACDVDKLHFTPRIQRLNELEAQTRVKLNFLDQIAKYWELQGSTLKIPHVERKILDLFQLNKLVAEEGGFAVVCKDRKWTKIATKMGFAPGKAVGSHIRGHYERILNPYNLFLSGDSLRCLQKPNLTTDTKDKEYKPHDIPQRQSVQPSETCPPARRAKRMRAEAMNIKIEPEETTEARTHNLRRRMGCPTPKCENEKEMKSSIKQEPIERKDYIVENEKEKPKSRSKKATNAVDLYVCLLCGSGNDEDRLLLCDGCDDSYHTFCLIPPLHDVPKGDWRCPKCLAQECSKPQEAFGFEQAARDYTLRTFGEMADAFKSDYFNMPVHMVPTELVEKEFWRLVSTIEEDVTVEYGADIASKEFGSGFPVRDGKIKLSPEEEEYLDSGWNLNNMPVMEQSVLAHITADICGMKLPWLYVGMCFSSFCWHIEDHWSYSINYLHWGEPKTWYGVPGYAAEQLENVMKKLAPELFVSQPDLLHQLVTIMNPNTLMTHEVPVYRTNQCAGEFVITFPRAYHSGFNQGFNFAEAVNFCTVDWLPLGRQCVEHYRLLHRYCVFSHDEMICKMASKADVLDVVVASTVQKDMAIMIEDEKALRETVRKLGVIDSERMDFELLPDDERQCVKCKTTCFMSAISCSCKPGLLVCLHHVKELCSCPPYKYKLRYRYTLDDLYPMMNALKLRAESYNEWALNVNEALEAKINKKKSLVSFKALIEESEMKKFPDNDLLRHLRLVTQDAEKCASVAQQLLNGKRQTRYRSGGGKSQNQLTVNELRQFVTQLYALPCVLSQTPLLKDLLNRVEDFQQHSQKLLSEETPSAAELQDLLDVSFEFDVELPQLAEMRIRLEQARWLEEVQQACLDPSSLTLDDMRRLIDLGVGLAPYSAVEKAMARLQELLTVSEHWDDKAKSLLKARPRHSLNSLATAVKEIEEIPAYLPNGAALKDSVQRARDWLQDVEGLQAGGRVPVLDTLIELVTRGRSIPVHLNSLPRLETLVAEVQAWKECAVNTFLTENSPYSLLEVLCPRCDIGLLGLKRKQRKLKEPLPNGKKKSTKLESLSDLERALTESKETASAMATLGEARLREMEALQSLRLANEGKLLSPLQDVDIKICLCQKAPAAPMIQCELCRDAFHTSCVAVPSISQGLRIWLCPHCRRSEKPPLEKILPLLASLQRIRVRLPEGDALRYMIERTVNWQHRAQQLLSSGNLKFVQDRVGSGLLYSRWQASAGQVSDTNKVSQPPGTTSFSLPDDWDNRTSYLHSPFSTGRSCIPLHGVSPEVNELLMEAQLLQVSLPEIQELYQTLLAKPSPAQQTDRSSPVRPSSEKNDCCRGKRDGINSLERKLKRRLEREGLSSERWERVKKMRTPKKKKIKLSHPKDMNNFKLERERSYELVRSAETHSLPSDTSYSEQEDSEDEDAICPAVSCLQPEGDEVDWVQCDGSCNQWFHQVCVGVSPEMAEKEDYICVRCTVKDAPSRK

Structure (SMILES) | Potency | activity change, negative = inhibition
CCc1nc2c(c(-c3ccc(O)cc3)n1)CN(Cc1ccccc1OC)CC2 | inconclusive: 20 µM [inhibitor, single point] | –
OCCc1cnc2c(-c3nc(-c4cccnn4)no3)cnn2c1 | active: 25.1 µM | –
Cc1ccc(C(NC(=O)c2ccncc2)c2ccccc2)cc1C (configuration not stated) | inactive | –
CCN1C(SCC(=O)N2CCCC2)=NS(=O)(=O)c2ccccc21 | inactive | –
Cc1cc2oc(C(=O)N(Cc3ccc(C(C)C)cc3)C3CCS(=O)(=O)C3)cc(=O)c2cc1Cl (configuration not stated) | inactive | –
CCn1c(SCC(=O)Nc2ccc(C(C)=O)cc2)nc2c(-c3ccccc3)csc2c1=O | inactive | –
CC1=C[C@@H](CNC(=O)C(C)(C)C)[C@H](C(C)C)C[C@H]1CC(=O)N1CCN(c2ccccn2)CC1 | active: 20 µM | –
CN1CCCCC1CC(=O)O (configuration not stated) | inactive | –
COc1ccccc1N1CCN(C(=O)CSc2nnc3c(=O)n(-c4cccc(F)c4)ccn23)CC1 | inactive | –
O=C(NC1CCN(c2cc(-c3ccccc3)[nH]n2)C1)c1ccsc1 (configuration not stated) | inconclusive: 17.8 µM [inhibitor, partial curve, poor fit] | –
Cc1oc2cc(OCC(=O)NCc3ccccc3F)ccc2c(=O)c1Oc1ccccc1 | inconclusive: 25.1 µM [inhibitor, partial curve, poor fit] | –
O=C(O)Cn1ccc2cc(OCCc3cccc(-c4ccccc4)c3)cnc21 | inconclusive: 39.8 µM [inhibitor, partial curve, poor fit] | –
O=C(NC1CCCC1)N1CCCN(c2nc3ncccc3o2)CC1 | active: 28.2 µM | –
Cc1cnc(C(=O)OCc2cc(=O)oc3cc(C)c(C(C)C)cc23)cn1 | inactive | –
CCc1ccc(C(=O)c2cn(CC(=O)Nc3ccc4c(c3)OCCO4)c3ccc(C)cc3c2=O)cc1 | inconclusive: 28.2 µM [inhibitor, single point] | –
Cc1nn(CC(=O)O)c(=O)c2nc(C(C)C)sc12 | inactive | –
Cc1ccc(-n2cc(CN3CCC(CCO)CC3)c(-c3cccc(C)c3)n2)cc1 | inconclusive: 28.2 µM [inhibitor, partial curve, poor fit] | –
O=C1COc2ccc(-c3ccccc3)nc2CN1 | inactive | –
Cn1nc(-c2nncn2-c2ccccc2)c2c1CCN(C(=O)c1ccncc1)C2 | inconclusive: 15.8 µM [inhibitor, single point] | –
COCc1cc(C)nc2sc3c(c12)NC(c1ccccc1C(=O)O)N(c1ccc(OC)cc1)C3=O (configuration not stated) | inconclusive: 31.6 µM [inhibitor, partial curve, poor fit] | –
Cc1ccc(OCC(=O)N[C@@H]2CCOC[C@H]2Oc2cccc(F)c2)cc1C | inactive | –
Cc1ccc(CN(CC(=O)N2CCc3ccccc3C2)S(=O)(=O)c2ccc(Cl)cc2)cc1 | inactive | –
O=C([C@@H]1C[C@H](Oc2ccccc2)CN1C(=O)c1ccc2ccccc2n1)N1CCOCC1 | inactive | –

Structure (SMILES) | Potency | activity change, negative = inhibition
Cc1noc(-c2ccccc2OC2CCNC2)n1 (configuration not stated) | inconclusive: 39.8 µM [inhibitor, single point] | –
COc1ccc(C(=O)Oc2ccc(C3NC(=O)c4c(sc5c4CCN(C)C5)N3)cc2OC)cc1 (configuration not stated) | inconclusive: 22.4 µM [inhibitor, partial curve, poor fit] | –
O=C(O)Cn1ccc2cc(OCCc3cccc(-c4ccc(F)cc4)c3)cnc21 | active: 39.8 µM | –
CC1(COc2ccccc2)COc2ccc(C(=O)NCCc3cnc[nH]3)cc2N1 (configuration not stated) | active: 35.5 µM | –
CCOc1ccc(CNc2nc(NCc3ccc(OCC)cc3)n(C(=O)C(C)C)n2)cc1 | inconclusive: 39.8 µM [inhibitor, single point] | –
O=C1COc2ccc(-c3ccccc3)nc2CN1Cc1ccc(F)cc1 | inactive | –
CC(C)n1c(C2CCN(C(=O)c3n[nH]c4ccccc34)CC2)nn(C)c1=O | inactive | –
COc1ccc(CC(=O)Nc2ccc(-c3nc4ccccc4s3)c(C)c2)cc1 | inconclusive: 2.51 µM [inhibitor, partial curve, poor fit] | –
COc1ccc2c(c1)OCC(C(=O)NCc1nnnn1-c1ccccc1)C2 (configuration not stated) | inconclusive: 31.6 µM [inhibitor, partial curve, poor fit] | –
CCC1(CC)Nc2ccccc2C(=O)N1c1ccc(OC)cc1 | inconclusive: 28.2 µM [inhibitor, partial curve, poor fit] | –
O=C(C1CC1)N1CCCN(Cc2ccc3c(c2)OCO3)c2ccccc21 | inconclusive: 17.8 µM [inhibitor, single point] | –
COc1ccc(-c2nc(-c3nnn4c3COC(c3ccccc3Cl)C4)no2)cc1OC (configuration not stated) | inconclusive: 22.4 µM [inhibitor, partial curve, poor fit] | –
COc1cc(C2Nc3ccc4ccccc4c3C3=C2C(=O)CC(C)(C)C3)ccc1OC(C)C(=O)O (configuration not stated) | inconclusive: 31.6 µM [inhibitor, partial curve, poor fit] | –
Cc1ccc(-c2noc([C@@H]3Cc4nc[nH]c4CN3C(=O)NC(C)C)n2)cc1 | inconclusive: 39.8 µM [inhibitor, partial curve, poor fit] | –
CCN1CCN(c2ncnc3c2cnn3-c2ccc(F)cc2)CC1 | inconclusive: 25.1 µM [inhibitor, single point] | –
CNC(=O)Cc1cccc(-n2ccnc2-c2cc(OC)c(OC)cc2F)c1 | inconclusive: 15.8 µM [inhibitor, single point] | –
C=CCOC(=O)C1=C(C)N=C2SC=C(CC(=O)NCc3ccco3)N2C1c1cccc(C)c1 (configuration not stated) | inconclusive: 28.2 µM [inhibitor, partial curve] | –
COc1ccc(-c2cc(C(=O)NCc3cnn(C)c3)c3c(c2)N(C)CCO3)cc1 | active: 35.5 µM | –
Cc1c(-c2cc(C(F)F)c3c(C4CC4)nn(CC(=O)O)c3n2)cnn1C | inconclusive: 39.8 µM [inhibitor, single point] | –
CN(Cc1ccccc1)S(=O)(=O)c1ccc(NC(=O)CN2CCN(c3ccccc3O)CC2)cc1 | inactive | –
Cc1ccc(C(=O)NCCc2nnc3ccc(SCC(=O)Nc4cc(C)on4)nn23)cc1 | inconclusive: 25.1 µM [inhibitor, partial curve, poor fit] | –
Cc1c(C(=O)Nc2ccc3oc(-c4ccc(F)cc4)nc3c2)cccc1[N+](=O)[O-] | inactive | –
Fc1cccc(Cl)c1C1NC(=S)NC2=C1CCc1ccccc12 (configuration not stated) | inconclusive: 14.1 µM [inhibitor, partial curve, poor fit] | –

Structure (SMILES) | Potency | activity change, negative = inhibition
CSc1ccc(CCNC(=O)CCc2c(C)nc3c4cccnc4nn3c2C)cc1 | inconclusive: 28.2 µM [inhibitor, partial curve, poor fit] | –
CCOC(=O)C1=C(C)N(Cc2ccc(C(=O)N3CCCCC3)cc2)C(=O)CC1c1cccc(C)c1 (configuration not stated) | inactive | –
Cc1ccc(Cl)cc1NC(=O)Cn1nc(C(=O)O)c2ccccc2c1=O | inactive | –
O=S(=O)(Nc1cccc(-c2ccc(N3CCCCC3)nn2)c1)c1ccc(F)cc1F | inconclusive: 17.8 µM [inhibitor, partial curve, poor fit] | –
CCSc1nc2sc3c(c2c(=O)n1-c1ccc(C)cc1)CCCC3 | inconclusive: 15.8 µM [inhibitor, partial curve, poor fit] | –
CC(C)CNc1cc(NC2CCCCC2)c2c3c(onc13)-c1ccccc1C2=O | inconclusive: 17.8 µM [inhibitor, partial curve, poor fit] | –
O=Cc1ccc(Oc2ccc([N+](=O)[O-])cc2C(F)(F)F)cc1 | inactive | –
CC[C@@]1(O)CCN(c2nc(N)c3cc(OC)c(OC)cc3n2)C[C@H]1O | active: 31.6 µM | –
Cc1ccc(Cl)cc1N1CCN(C(=O)c2cn(C)c3ccc(S(=O)(=O)N4CCCCC4)cc3c2=O)CC1 | – | inconclusive: -30.6% [inhibitor] [at 11.5 µM]
COC(=O)c1ccccc1NC(=O)CCc1c(C)nc2cc(-c3ccc(Cl)cc3)nn2c1C | inconclusive: 31.6 µM [inhibitor, single point] | –
CC(=O)Oc1c(-c2ccc(NC(=O)c3ccco3)cc2)c(-c2cccc(C)c2)nn1-c1cccc(F)c1 | inconclusive: 22.4 µM [inhibitor, partial curve] | –
O=S(=O)(Nc1c(O)ccc2ccccc12)c1ccc(F)cc1 | inconclusive: 14.1 µM [inhibitor, single point] | –
CN(CCc1ccccc1)CCN1CC2(CCN(c3ncccc3C#N)CC2)OC1=O | active: 31.6 µM | –
CC(=O)c1cc(-c2ccc(F)cc2)n(CCC(=O)NC2CCCCC2)c1C | inconclusive: 1.78 µM [inhibitor, partial curve, poor fit] | –
CC(C(=O)Nc1ccc2[nH]c(=O)[nH]c2c1)N(C)Cc1ccc(Cl)c(Cl)c1 (configuration not stated) | inactive | –
COc1cc(-c2ccnc3nc(CC(C)C)nn23)cc(OC)c1OC | active: 17.8 µM | –
COc1cc(C2CC(=O)N(CC(=O)Nc3ccccc3F)c3ccccc3S2)cc(OC)c1OC (configuration not stated) | inconclusive: 28.2 µM [inhibitor, single point] | –
O=C(Nc1ccc(F)cc1)N1CCCC(Cn2c(C3CC3)nc3cccnc32)C1 (configuration not stated) | inconclusive: 39.8 µM [inhibitor, single point] | –
Cc1ccc(CCNC(=O)c2ccc(CSc3nc4ccncc4n3Cc3ccc(F)cc3)cc2)cc1 | inconclusive: 25.1 µM [inhibitor, single point] | –
NC(=O)c1cccc(-c2ccc3c(n2)CN(Cc2nc4ccccc4s2)C(=O)CO3)c1 | inconclusive: 35.5 µM [inhibitor, partial curve, poor fit] | –
O=C(Nc1cccc(S(=O)(=O)N2CCOCC2)c1)c1ccc(OCc2cn3ccccc3n2)cc1 | inconclusive: 28.2 µM [inhibitor, partial curve, poor fit] | –

Reference: PubChem BioAssay AID1347165 (National Center for Advancing Translational Sciences (NCATS), 2019)
